According to the RNAGym collection of RNA variant scans (doi:10.7554/elife.90254):
Read counts are not given, so values of variants with three or more changes are uncertain.

B1: OR4K15 (parent)
chain: GUUAACGGUCAUAGGCCAUGGAAACUAGGAGCACCAUUUCGCUGCCAGUGAAGAAAUGAACAAAGAAAAUCUGGGCCAGGCAGGCAUCAAAAGAAAUAGUCUUGCGCUCAACCAGAAAGUCUGUAAUCAUUUUAAGGGUA

Variants of: B1
Assay: self-cleavage, relative activity (ratio to wild type); higher = more cleavage; in vitro, sequencing; the parent is a self-cleaving ribozyme

Variant | self-cleavage
GUUAACGGUCAUAGGCCAUGGAAACUAGGAGCACCAUUUCGCUGCCAGUGAAGAAAUGAACAAAGAAAAUCUGGGCCAGGCAGGCAUCAAAAGAGAUAGUCUUGCGCUCAACCAGAGAGUCUGUGAUCAUUUUAAGGGUA [A95G A117G A125G] | 1.07
GUUAACGGUCAUAGGCCAUGGAAACUAGGAGCACCAUUUCGCUGCCAGUGAAGAAAUGAACAAAGAAAAUCUGGGCCAGGCAGGCAUCAAAAGAAGUAGCCUUGCACUCAACCAGAAAGUCUGUAAUCAUCUUAAGGGUA [A96G U100C G106A U131C] | 0
GUUAACGGUCAUAGGCCAUGGAAACUAGGAGCACCAUUUCGCUGCCAGUGAAGAAAUGAACAAAGAAAAUCUGGGCCAGGCAGGCAUCAAAAGAUAUAGUCUCGCGCUCAACCAGAAGGUCUGUAAUCAUUUUAAGGGUA [A95U U103C A118G] | 0.89
GUUAACGGUCAUAGGCCAUGGAAACUAGGAGCACCAUUUCGCUGCCAGUGAAGAAAUGAACAAAGAAAAUCUGGGCCAGGCAGGCAUCAAAAGAACUAGUCUUGCGCCCAACCAGAAGGUCUGUAAUCAUUUUAAGGGUA [A96C U108C A118G] | 0.01
GUUAACGGUCAUAGGCCAUGGAAACUAGGAGCACCAUUUCGCUGCCAGUGAAGAAAUGAACAAAGAAAAUCUGGGCCAGGCAGGCAUCAAAAGAGAUAGUCUUGCGGUCAACCAGAAAGUCUGUAAUCAAUCUAAGGGUA [A95G C107G U130A U132C] | 0
GUUAACGGUCAUAGGCCAUGGAAACUAGGAGCACCAUUUCGCUGCCAGUGAAGAAAUGAACAAAGAAAAUCUGGGCCAGGCAGGCAUCAAAAGAAGUAGUCCUGCGCUCAACCAGUAAGUCUGUAAUCAUUUUAAGGGUA [A96G U102C A116U] | 0.3
GUUAACGGUCAUAGGCCAUGGAAACUAGGAGCACCAUUUCGCUGCCAGUGAAGAAAUGAACAAAGAAAAUCUGGGCCAGGCAGGCAUCAAAAGAGACUGUCUAGCGCUCAACCAGAAAGUCUGUAAUCAUCUUAGGGGUA [A95G U97C A98U U103A U131C A135G] | 0.03
GUUAACGGUCAUAGGCCAUGGAAACUAGGAGCACCAUUUCGCUGCCAGUGAAGAAAUGAACAAAGAAAAUCUGGGCCAGGCAGGCAUCAAAAGAAGUAGCCUUGCGCUCAACCAGAAGGUCUGUAAUCCUUUUAAGGGUA [A96G U100C A118G A129C] | 1.88
GUUAACGGUCAUAGGCCAUGGAAACUAGGAGCACCAUUUCGCUGCCAGUGAAGAAAUGAACAAAGAAAAUCUGGGCCAGGCAGGCAUCAAAAGAGAUAGUCUCGCGCUCAACCAGAAAGUCUGUAAUCACUUUAAGGGUA [A95G U103C U130C] | 0.38
GUUAACGGUCAUAGGCCAUGGAAACUAGGAGCACCAUUUCGCUGCCAGUGAAGAAAUGAACAAAGAAAAUCUGGGCCAGGCAGGCAUCAAAAGAAGUAGCCUUGCGCUCAACCAGAAAGCCUGUAAUCAUUUUAAGGGUA [A96G U100C U120C] | 2.53
GUUAACGGUCAUAGGCCAUGGAAACUAGGAGCACCAUUUCGCUGCCAGUGAAGAAAUGAACAAAGAAAAUCUGGGCCAGGCAGGCAUCAAAAGAUAUGGUCUUGCGCUCAACCAGAAAGUCUGUAAUCAUUUUAUGGGUA [A95U A98G A135U] | 1.61
GUUAACGGUCAUAGGCCAUGGAAACUAGGAGCACCAUUUCGCUGCCAGUGAAGAAAUGAACAAAGAAAAUCUGGGCCAGGCAGGCAUCAAAAGAGAUAGUCUUGCGCUCAGCCAGGAAGUCUGUGAUCAUUUUAAGGGUA [A95G A111G A116G A125G] | 0.01
GUUAACGGUCAUAGGCCAUGGAAACUAGGAGCACCAUUUCGCUGCCAGUGAAGAAAUGAACAAAGAAAAUCUGGGCCAGGCAGGCAUCAAAAGAAGUAGUCUUGCGCUCAACCAGAAAGUCUGUAAUCGUUCUAAGGGUA [A96G A129G U132C] | 0.96
GUUAACGGUCAUAGGCCAUGGAAACUAGGAGCACCAUUUCGCUGCCAGUGAAGAAAUGAACAAAGAAAAUCUGGGCCAGGCAGGCAUCAAAAGAUAUAGUCUGGCGCUCAACCAGAGAGUCUGUAAUCAUUUUAAGGGUA [A95U U103G A117G] | 0
GUUAACGGUCAUAGGCCAUGGAAACUAGGAGCACCAUUUCGCUGCCAGUGAAGAAAUGAACAAAGAAAAUCUGGGCCAGGCAGGCAUCAAAAGAGAUAGUCCUGCGCUCAACCAGAAAGUCUGUAAUCAUUCUAAGGGUA [A95G U102C U132C] | 2.43
GUUAACGGUCAUAGGCCAUGGAAACUAGGAGCACCAUUUCGCUGCCAGUGAAGAAAUGAACAAAGAAAAUCUGGGCCAGGCAGGCAUCAAAAGAGAUAGUCUUGCGCUCAACCAGGAAGUCUGUAAUCAUUCUAAGGGUA [A95G A116G U132C] | 1.09
GUUAACGGUCAUAGGCCAUGGAAACUAGGAGCACCAUUUCGCUGCCAGUGAAGAAAUGAACAAAGAAAAUCUGGGCCAGGCAGGCAUCAAAAGAGAUAGUCUUGCGCUCAACCAGAGAGUCAGUAAUCAUUUUAAGGGUA [A95G A117G U122A] | 1.7
GUUAACGGUCAUAGGCCAUGGAAACUAGGAGCACCAUUUCGCUGCCAGUGAAGAAAUGAACAAAGAAAAUCUGGGCCAGGCAGGCAUCAAAAGAAGUAGUCUUGCGCUCAACCAGAAGGUCUGUAGUCAUUUUAAGGGUA [A96G A118G A126G] | 1.02
GUUAACGGUCAUAGGCCAUGGAAACUAGGAGCACCAUUUCGCUGCCAGUGAAGAAAUGAACAAAGAAAAUCUGGGCCAGGCAGGCAUCAAAAGAAGUAGUCUUGCGCUCAACCAGAAAGUCUGUGAUCAUCUUAAGGGUA [A96G A125G U131C] | 0.17
GUUAACGGUCAUAGGCCAUGGAAACUAGGAGCACCAUUUCGCUGCCAGUGAAGAAAUGAACAAAGAAAAUCUGGGCCAGGCAGGCAUCAAAAGAGAUAGUCUUGCGCUCGACCAGAGAGUCUGUAAUCAUUUUAAGGGUA [A95G A110G A117G] | 0.11
GUUAACGGUCAUAGGCCAUGGAAACUAGGAGCACCAUUUCGCUGCCAGUGAAGAAAUGAACAAAGAAAAUCUGGGCCAGGCAGGCAUCAAAAGAGAUAGUCUUGCGCCCAACCAGAAGGUUUGUAAUCAUUUUAAGGGUA [A95G U108C A118G C121U] | 0.01
